# Reference: the supplement of paper PMC3334620
# Over roughly 33,000 sequences, “E-score (-0.5 to 0.5)” has its median near -0.01; the highest 2% begin near 0.26. Some of the results follow.
# Target: Ste12 (UniProt P13574)
# Experiment: PBM E-score (8-mer binding enrichment) (E-score (-0.5 to 0.5)); higher = stronger / more preferred TF binding; most listed sequences are background and not binding sites
# Conditions: protein concentration: 200 nM; construct: GST-DNA-binding domain
# Outline: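 Yeast transcription factors, full-length or as DNA-binding domains, were expressed with a GST tag using PURExpress in vitro transcription/translation. At about 100-200 nM they were applied to universal all-10-mer Agilent arrays, double-stranded by primer extension on fresh or once-stripped slides. Fluorescent anti-GST detected bound protein, and masliner normalised the scans. E-scores for ungapped eight-base words, pooled with reverse complements, came from the Universal PBM Analysis Suite.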
row,Sequence,PBM E-score
1,GACCACAC,-0.00854
2,GACCCCTC,-0.119
3,AGGCAACG,-0.218
4,GATTGGTA,0.0851
5,CCTGAAAG,-0.179
6,AGCTTTGA,-0.0146
7,CGGAAGTC,0.026
8,ACCCGGCC,-0.335
9,AAAGAGTA,0.0122
10,CTTTGTGA,-0.0351
11,CCTTCTCA,0.014
12,ATACTGAT,0.117
13,GCTGAACA,-0.064
14,CCGTAGTA,-0.0563
15,GGCTTCAA,-0.0882
16,ATAAAGTC,0.167
17,AGGTTATA,0.0168
18,CCTCGAAG,-0.0859
19,CCTGACCC,-0.0436
20,CAGCGCTA,-0.0397
21,TACGGTAA,0.154
22,CTAACCAA,0.186

row,Sequence,PBM E-score
1,AGAAGGCT,-0.0898
2,GGGAGTGA,0.11
3,AACCCGAT,0.137
4,CAGGGTAC,-0.223
5,CAGCCGGC,0.0566
6,AGTGAGTG,0.0865
7,CGATTCCC,0.0347
8,AATTCTTG,0.121
9,AGTCGCAC,-0.064
10,CTCGCGGC,-0.046
11,AGCCGCCC,0.093
12,CTATACTC,-0.0377
13,ACTCTAAC,0.134
14,GATGAATC,0.0548
15,CGTGTAGC,-0.148
16,CCGAACAG,-0.0265
17,ACAAAATA,0.0836
18,TCACAGAA,-0.0114
19,GACAGCCA,-0.0873
20,CTTGAACC,-0.0679
21,AATATATT,0.326
22,AACGCCTG,0.00128

row,Sequence,PBM E-score
1,CACTTACG,-0.0469
2,CCATAAAA,0.256
3,ACAATATG,0.0817
4,ACATCACC,-0.0996
5,GCCAGTGA,-0.131
6,CGCTGAAC,-0.0298
7,CGCCCAAA,0.023
8,CAACCCGC,0.116
9,AACGACGC,-0.0528
10,ACTCTCCA,-0.141
11,ATCCCTTC,-0.076
12,AAGTGCAG,-0.122
13,CACCTAGG,-0.198
14,ACCCGATC,0.0578
15,CGGGACGC,-0.055
16,AAGAGCTC,-0.0902
17,CTAGCATC,-0.0457
18,ACAACTGT,-0.164
19,AAGAGGGT,-0.282
20,AGTCAATC,0.111
21,ATCCCAAT,0.0963
22,AGAGCGCA,-0.277

row,Sequence,PBM E-score
1,AACTCGAC,0.207
2,AGTGCCTA,-0.311
3,ACTGCGAG,0.0571
4,AATTTGGG,0.161
5,CTTTCGGA,0.0344
6,AGGAACGC,-0.0196
7,GAGCATTA,-0.0174
8,GTGGCAAA,0.0171
9,ATGGGGGG,-0.19
10,ACGTGCAC,-0.2
11,GCCTGAGC,-0.0841
12,ACTACGGG,-0.0373
13,ACTACACC,-0.189
14,AGGTCTCC,-0.0404
15,CAATAGAA,-0.0727
16,CTCTCTAA,-0.104
17,ATCTCCTA,-0.147
18,CTGAGCCC,-0.104
19,GACACGTC,-0.234
20,CTTCAAGA,-0.0442
21,GATATTAA,0.246
22,AGCGAGCG,0.0574

row,Sequence,PBM E-score
1,GATCTTAC,-0.064
2,CTCTCTTC,-0.302
3,AAGCTCAA,-0.168
4,GCTGAAGC,-0.0602
5,AGCCCTCC,-0.0764
6,CGAGGCGA,0.00544
7,AATACACG,-0.174
8,AGGCGGAC,-0.0535
9,CGACATGC,-0.091
10,AGTTACGA,-0.0238
11,AACTTTAG,0.0874
12,CACCGGCA,0.0444
13,CTGCGTCA,-0.12
14,AGTTCGTC,-0.0529
15,ATTGCCTA,-0.2
16,CGCGTCCC,-0.0346
17,ATGTATAG,0.0331
18,AGACTGAC,-0.139
19,CTTGCCTA,-0.125
20,ACTGGGCT,0.00192
21,AGTAATTG,0.0886
